{"source": "PubChem BioAssay AID686979", "about": "(National Center for Advancing Translational Sciences (NCATS), 2013)", "note": "Values joined by “and” are separate entries in the source; they are usually repeats but may differ in a detail not shown here. Identical values can stand only once. Among all 420,000 compounds or so, about 50,000 (12%) were called active. The inconclusive results got no clear call from the source; some entries with a clear call stand among them for comparison. The call rests on the fitted dose curve; in most records, active means well fitted inhibition curve with a large enough effect; inconclusive means small, poorly fitted or top-dose-only effect; inactive means flat fitted curve, though single readings scatter. Potencies beside an inconclusive call are fits to weak or partial responses and may not hold up. On the % scale 0 is the no-effect control and ±100 the full control effect; potency means the concentration at half of the fitted maximal effect; tags describe the fitted curve by direction and shape."}
{"assay": "qHTS for Inhibitors of human tyrosyl-DNA phosphodiesterase 1 (TDP1): qHTS in cells in presence of CPT; further: nearly all actives have a fitted effect of over 55% in size", "conditions": "chicken DT40 Tdp1-/-;hTDP1 cells + 20 nM CPT, ATP luminescence, 48 h; activity change, negative = growth inhibition: at 46.2 µM (top of the series)", "in_short": "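Chicken DT40 Tdp1-/- cells complemented with human TDP1, 400 cells/well, exposed to compounds plus 20 nM camptothecin for at least 48 h at 37 C; viability read as ATP content by CellTiter-Glo luminescence.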"}
{"smiles": "CCOC(=O)c1[nH]c2c(c1Cc1ccccc1)C(=O)CC(c1ccc(C(C)(C)C)cc1)C2", "note": "(stereo not given)", "Potency": "inconclusive: 18.4 µM [inhibitor, single point]"}
{"smiles": "CCN(CC)S(=O)(=O)c1cccc(-c2nnc(SCC(=O)NC3CCCCCCC3)n2N)c1", "Potency": "inconclusive: 5.8 µM [inhibitor, partial curve]"}
{"smiles": "C=CCn1c(SCc2csc(C)n2)nc2sc3c(c2c1=O)CCCC3", "Potency": "inconclusive: 23.1 µM [inhibitor, single point]"}
{"smiles": "CC(C)[C@@H](NC(=O)C1CCN(C(=O)[C@@H]2CCCN2C(=O)OC(C)(C)C)CC1)C(=O)NCc1ccc(F)cc1", "activity change, negative = growth inhibition": "inactive: -9.09%"}
{"smiles": "COc1ccc(-c2noc(CSc3nnc(Cc4ccccc4)n3-c3ccc(F)cc3)n2)cc1", "Potency": "inconclusive: 29.1 µM [inhibitor, single point]"}
{"smiles": "COc1ccccc1Cc1c(-c2ccc(F)cc2)nc2ccc(Br)cn12", "Potency": "inconclusive: 20.6 µM [inhibitor, single point]"}
{"smiles": "O=C(O)c1ccc(O)cc1O", "activity change, negative = growth inhibition": "inactive: -14%"}
{"smiles": "CCCCN1C2CCCC1CC(NC(=O)C1CCCCC1)C2", "note": "(stereo not given)", "activity change, negative = growth inhibition": "inactive: -0.427%"}
{"smiles": "CCN(CC)CCCNC(=O)c1sc2nc3n(c(=O)c2c1C)CCCCC3", "activity change, negative = growth inhibition": "inactive: -16.3%"}
{"smiles": "O=C(CN1C(=O)S/C(=C\\c2ccc(F)cc2)C1=O)Nc1cccc(S(=O)(=O)NCc2ccco2)c1", "Potency": "inconclusive: 29.1 µM [inhibitor, single point]"}
{"smiles": "O=S(=O)(c1ccc(-c2ccno2)s1)N1CCCCC1", "activity change, negative = growth inhibition": "inactive: -29.3%"}
{"smiles": "COc1cc(C(=O)N2CCCCC2c2cc(C(=O)Nc3ccccc3)no2)cc(OC)c1C", "note": "(stereo not given)", "Potency": "inconclusive: 29.1 µM [inhibitor, single point]"}
{"smiles": "Cc1ccc(CNC(=O)c2ccc3c(c2)S(=O)(=O)c2ccccc2C3=O)o1", "Potency": "inconclusive: 29.1 µM [inhibitor, single point]"}
{"smiles": "Cc1cc(C)cc(N(CC(=O)Nc2c(C)cc(C)cc2C)S(=O)(=O)c2c(C)nn(C)c2C)c1", "Potency": "inconclusive: 25.9 µM [inhibitor, single point]"}
{"smiles": "COc1ccccc1CNC(=O)COc1ccc([N+](=O)[O-])cc1", "activity change, negative = growth inhibition": "inactive: -0.418%"}
{"smiles": "COc1ccc(C(=O)Nc2nc3c(s2)Cc2c(Br)ccc(OC)c2-3)cc1OC", "Potency": "inconclusive: 7.31 µM [inhibitor, partial curve]"}
{"smiles": "CCCCNC(=O)C(NC(=O)c1cccnc1)C(=O)c1ccccc1", "note": "(stereo not given)", "activity change, negative = growth inhibition": "inactive: -0.913%"}
{"smiles": "CCN(CC)S(=O)(=O)c1cc(-c2ccc(=O)n(C(C)C(=O)Nc3cccc(C#N)c3)n2)ccc1C", "note": "(stereo not given)", "Potency": "inconclusive: 20.6 µM [inhibitor, single point]"}
{"smiles": "CC(C)c1ccc(S(=O)(=O)N2CCN(C(=O)CN3C(=O)NC4(CCCCC4)C3=O)CC2)cc1", "Potency": "inconclusive: 18.4 µM [inhibitor, single point]"}
{"smiles": "COC(=O)C1=C(C)N(CCc2ccc(OC)c(OC)c2)C(=O)/C1=C\\N(C)C", "Potency": "inconclusive: 29.1 µM [inhibitor, single point]"}
{"smiles": "CCc1ccc(NC(=O)CSc2nnc(CC)c(CC)n2)cc1", "Potency": "inactive and inconclusive: 25.9 µM [inhibitor, single point]"}
{"smiles": "O=c1cc(-c2ccccc2)nc(Cc2c(Cl)cccc2Cl)[nH]1", "activity change, negative = growth inhibition": "inactive: -2.03%"}
{"smiles": "Cc1ccc(Nc2nc(Cl)nc(N(C)C#N)n2)cc1", "Potency": "inconclusive: 29.1 µM [inhibitor, single point]"}
{"smiles": "COc1ccc(C(C)(O)c2nc(-c3ccccc3OC)cs2)cc1", "note": "(stereo not given)", "Potency": "active: 9.2 µM"}
{"smiles": "COc1ccc(S(=O)(=O)N2CCCCCC2)cc1C(=O)N(C)CC(=O)Nc1c(Cl)cccc1Cl", "Potency": "inconclusive: 18.4 µM [inhibitor, single point]"}
{"smiles": "Cn1c2ccccc2c2cc(/C=N/NC(=O)c3cc(O)cc(O)c3)ccc21", "Potency": "inconclusive: 23.1 µM [inhibitor, single point]"}
{"smiles": "O=C(NCc1ccc2c(c1)OCO2)c1ccco1", "activity change, negative = growth inhibition": "inactive: -6.13%"}
{"smiles": "Cc1ccc(-c2noc(C3CCCN(C(=O)c4ccc(Cl)cc4)C3)n2)o1", "note": "(stereo not given)", "Potency": "inconclusive: 29.1 µM [inhibitor, single point]"}
{"smiles": "CC1=C(C(=O)N(C)C)CC(CC(=O)NCCCCc2ccccc2)C(=O)N1Cc1ccccc1", "note": "(stereo not given)", "activity change, negative = growth inhibition": "inconclusive: -34.5% [inhibitor]"}
{"smiles": "CCc1cccc2c1NC(=O)C2(O)CC(=O)c1cccs1", "note": "(stereo not given)", "activity change, negative = growth inhibition": "inactive: 3.7%"}
{"smiles": "CCCCn1c(SCc2nc3ccccc3s2)nc2ccccc2c1=O", "Potency": "active: 20.6 µM"}
{"smiles": "Cc1nc(C)n(C(C)CNS(=O)(=O)c2ccc(C)c(C)c2)n1", "note": "(stereo not given)", "activity change, negative = growth inhibition": "inactive: -0.32%"}
{"smiles": "O=C(Cc1cccs1)N1CCN(S(=O)(=O)c2cccc([N+](=O)[O-])c2)CC1", "activity change, negative = growth inhibition": "inactive: -15.5%"}
{"smiles": "CCOc1ccccc1NC(=O)CCS(=O)(=O)c1ccc2c(c1)oc(=O)n2C", "activity change, negative = growth inhibition": "inactive: -11%"}
{"smiles": "CCOc1cc(-c2nnc(SCC(=O)NC3CCCCC3)nc2-c2ccc(OC)c(OCC)c2)ccc1OC", "Potency": "inconclusive: 20.6 µM [inhibitor, single point]"}
{"smiles": "CC1(C)Cc2ccccc2C2=NNC(=O)C2=N1", "Potency": "active: 16.4 µM"}
{"smiles": "CC(C)n1nnnc1SCC(=O)NCCc1ccccc1", "activity change, negative = growth inhibition": "inconclusive: 5.12% [inhibitor]"}
{"smiles": "CCN(CC)S(=O)(=O)c1cc(NC(=O)c2ccc(Br)s2)ccc1C", "Potency": "inconclusive: 25.9 µM [inhibitor, single point]"}
{"smiles": "CCc1nc2c(c(=O)c3ccccc3n2C)c(=O)n1C1CCCCCC1", "Potency": "inconclusive: 29.1 µM [inhibitor, single point]"}
{"smiles": "COc1ccc(CNC(=O)CCCn2ccc3cc(S(=O)(=O)N4CCCC4)ccc32)cc1", "Potency": "active: 6.51 µM and active: 18.4 µM"}
{"smiles": "COc1ccc2c(c1)c1ncn(CCc3ccccc3)c(=O)c1n2C", "Potency": "inconclusive: 29.1 µM [inhibitor, partial curve, poor fit]"}
{"smiles": "O=C(NCCOc1ccccc1)c1cc([N+](=O)[O-])ccc1N1CCOCC1", "Potency": "active: 1.84 µM"}
{"smiles": "COc1ccc2oc(-c3cccc(NC(=O)c4cc([N+](=O)[O-])ccc4N4CCOCC4)c3)nc2c1", "Potency": "active: 13 µM"}
{"smiles": "CCOC(=O)C(C)Sc1nnc2cc(C)c3ccccc3n12", "note": "(stereo not given)", "Potency": "inconclusive: 14.6 µM [inhibitor, single point]"}
{"smiles": "CCNC(=O)NC(=O)C(C)Sc1nc2ccccc2n1CC(C)C", "note": "(stereo not given)", "Potency": "active: 18.4 µM"}
